These are yes or no findings as the source states them, for the method shown. In cells and extracts the contact can be indirect. Some binding calls cover weakened binding; strength is not graded here. For part of these data: Where a sequence is shown, tags or fusion partners need not be part of it.
What was measured:
FLAG-SMC6 [1] = target: T1, FLAG-SMC6 (UniProt Q96SB8); assay: co-IP; HEK293TT cells transfected with FLAG-SMC6, full-length FLAG-E2 or truncated FLAG-E2; 48 h; NP-40 lysis buffer, benzonase; IP with rabbit anti-SMC6 or rabbit IgG
T1 sequence: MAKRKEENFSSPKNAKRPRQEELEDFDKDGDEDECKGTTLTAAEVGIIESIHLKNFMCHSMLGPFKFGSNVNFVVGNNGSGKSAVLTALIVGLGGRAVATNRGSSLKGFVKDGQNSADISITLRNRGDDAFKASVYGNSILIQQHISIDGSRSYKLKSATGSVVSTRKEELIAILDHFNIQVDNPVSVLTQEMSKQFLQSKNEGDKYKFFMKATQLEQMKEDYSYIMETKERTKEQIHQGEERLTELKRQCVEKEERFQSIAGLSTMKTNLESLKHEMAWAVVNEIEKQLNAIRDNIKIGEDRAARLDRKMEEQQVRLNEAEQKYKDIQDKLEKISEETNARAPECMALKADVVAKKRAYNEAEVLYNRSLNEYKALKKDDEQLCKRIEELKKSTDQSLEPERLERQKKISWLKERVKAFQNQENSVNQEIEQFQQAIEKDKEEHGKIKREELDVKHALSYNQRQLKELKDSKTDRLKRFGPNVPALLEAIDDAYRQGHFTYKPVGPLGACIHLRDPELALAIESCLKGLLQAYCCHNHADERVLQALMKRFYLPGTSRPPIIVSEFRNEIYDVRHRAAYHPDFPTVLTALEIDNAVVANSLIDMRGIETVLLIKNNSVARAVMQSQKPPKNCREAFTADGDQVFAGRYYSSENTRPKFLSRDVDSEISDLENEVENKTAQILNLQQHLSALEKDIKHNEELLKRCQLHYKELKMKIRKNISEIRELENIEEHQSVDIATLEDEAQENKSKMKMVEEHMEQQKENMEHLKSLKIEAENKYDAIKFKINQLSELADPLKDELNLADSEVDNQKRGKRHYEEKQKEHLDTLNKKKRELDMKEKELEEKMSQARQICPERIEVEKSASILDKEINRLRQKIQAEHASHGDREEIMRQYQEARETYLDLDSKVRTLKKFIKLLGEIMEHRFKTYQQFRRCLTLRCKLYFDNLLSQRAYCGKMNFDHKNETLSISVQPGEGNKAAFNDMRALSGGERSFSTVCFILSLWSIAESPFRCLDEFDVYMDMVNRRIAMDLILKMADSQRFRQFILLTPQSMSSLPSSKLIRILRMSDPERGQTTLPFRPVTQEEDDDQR

Protein sequences, listed by entry. Tags and fused reporters are not part of them. Lines headed by an entry give the natural chain unless they say otherwise; changes in a name come on top.
UniProt P17383: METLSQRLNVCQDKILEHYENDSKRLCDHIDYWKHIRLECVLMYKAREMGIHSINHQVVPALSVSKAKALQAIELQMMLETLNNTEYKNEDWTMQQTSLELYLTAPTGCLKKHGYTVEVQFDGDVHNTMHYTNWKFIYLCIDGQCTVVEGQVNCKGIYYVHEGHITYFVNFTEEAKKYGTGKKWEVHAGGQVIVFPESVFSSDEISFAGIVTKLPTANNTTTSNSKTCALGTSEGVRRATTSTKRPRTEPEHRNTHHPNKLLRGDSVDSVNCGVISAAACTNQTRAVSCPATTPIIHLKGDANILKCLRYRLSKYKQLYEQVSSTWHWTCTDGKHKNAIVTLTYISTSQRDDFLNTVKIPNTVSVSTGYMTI

[2] = target: T2, endogenous SMC6 (human (endogenous in HEK293TT)) (UniProt Q96SB8); assay: co-IP; HEK293TT cells transfected with FLAG-SMC6, HPV-31 FLAG-E2 and HPV-31 HA-E1 alone or in combination; 48 h; NP-40 lysis buffer, benzonase; IP with rabbit anti-SMC6 or rabbit IgG
T2 sequence: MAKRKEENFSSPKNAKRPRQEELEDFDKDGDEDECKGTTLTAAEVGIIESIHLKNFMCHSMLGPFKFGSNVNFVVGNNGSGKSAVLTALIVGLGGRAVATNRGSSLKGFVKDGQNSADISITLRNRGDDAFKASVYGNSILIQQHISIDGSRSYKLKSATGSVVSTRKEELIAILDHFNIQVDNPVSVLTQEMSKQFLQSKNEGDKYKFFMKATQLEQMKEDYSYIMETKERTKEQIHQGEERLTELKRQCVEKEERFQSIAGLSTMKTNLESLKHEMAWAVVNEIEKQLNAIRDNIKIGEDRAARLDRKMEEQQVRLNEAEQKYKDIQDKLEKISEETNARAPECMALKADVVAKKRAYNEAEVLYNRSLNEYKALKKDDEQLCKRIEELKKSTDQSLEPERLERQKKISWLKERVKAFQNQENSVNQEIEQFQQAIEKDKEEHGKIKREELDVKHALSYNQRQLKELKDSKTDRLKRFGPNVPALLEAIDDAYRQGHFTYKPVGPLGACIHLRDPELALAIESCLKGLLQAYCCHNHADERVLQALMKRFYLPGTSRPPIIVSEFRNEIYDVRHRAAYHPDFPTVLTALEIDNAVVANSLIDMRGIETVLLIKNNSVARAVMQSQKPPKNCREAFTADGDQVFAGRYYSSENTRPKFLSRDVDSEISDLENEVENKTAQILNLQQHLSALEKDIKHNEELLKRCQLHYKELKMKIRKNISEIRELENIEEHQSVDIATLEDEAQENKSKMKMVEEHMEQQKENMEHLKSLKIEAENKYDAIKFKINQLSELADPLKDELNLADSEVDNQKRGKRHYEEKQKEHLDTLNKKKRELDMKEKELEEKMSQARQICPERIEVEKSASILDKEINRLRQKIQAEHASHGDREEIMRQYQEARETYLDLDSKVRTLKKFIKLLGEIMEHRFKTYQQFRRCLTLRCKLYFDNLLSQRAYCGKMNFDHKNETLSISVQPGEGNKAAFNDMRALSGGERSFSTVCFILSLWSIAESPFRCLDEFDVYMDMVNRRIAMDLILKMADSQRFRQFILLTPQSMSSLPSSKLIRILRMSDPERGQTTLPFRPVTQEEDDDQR

FLAG-SMC6 [3] = target: T1, FLAG-SMC6; assay: as above
FLAG-SMC6 [4] = target: T1, FLAG-SMC6; assay: co-IP; HEK293 cells transfected with FLAG-SMC6, HPV-31 V5-E2 or both; 48 h; lysis in 0.5% NP-40/150 mM NaCl/50 mM Tris-HCl pH 8/10% glycerol, benzonase; IP with M2 anti-FLAG agarose overnight at 4 °C; washes alternating 0.5 M and 150 mM salt
HPV-31 HA-E1 (HPV-31) = target: T3, HPV-31 HA-E1 (HPV-31) (UniProt P17382); assay: co-IP; HEK293TT cells transfected with FLAG-SMC6, HPV-31 V5-E2 and HPV-31 HA-E1; 48 h; NP-40 lysis buffer, benzonase; IP with rat anti-HPV-31 E1
T3 sequence: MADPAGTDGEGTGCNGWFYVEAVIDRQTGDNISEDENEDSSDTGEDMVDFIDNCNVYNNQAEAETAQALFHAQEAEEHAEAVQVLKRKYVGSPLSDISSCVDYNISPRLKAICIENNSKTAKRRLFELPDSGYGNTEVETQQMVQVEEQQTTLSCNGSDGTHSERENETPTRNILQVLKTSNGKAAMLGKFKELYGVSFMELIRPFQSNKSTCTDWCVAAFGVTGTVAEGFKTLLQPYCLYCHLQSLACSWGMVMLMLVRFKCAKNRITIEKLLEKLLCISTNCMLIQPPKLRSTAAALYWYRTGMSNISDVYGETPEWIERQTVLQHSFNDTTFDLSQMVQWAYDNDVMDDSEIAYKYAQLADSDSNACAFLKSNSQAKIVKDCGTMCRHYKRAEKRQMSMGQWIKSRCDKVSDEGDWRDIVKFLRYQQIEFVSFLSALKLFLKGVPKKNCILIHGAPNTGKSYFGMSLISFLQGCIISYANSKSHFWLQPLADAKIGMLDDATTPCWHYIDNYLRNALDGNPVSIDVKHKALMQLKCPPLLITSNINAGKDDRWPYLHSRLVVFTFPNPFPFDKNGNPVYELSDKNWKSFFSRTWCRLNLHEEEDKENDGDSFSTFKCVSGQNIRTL

Substance | binding (FLAG-SMC6 [1]) | binding [2] | binding (FLAG-SMC6 [3]) | binding (FLAG-SMC6 [4]) | binding (HPV-31 HA-E1 (HPV-31))
HPV-31 FLAG-E2^mt (residues 205-372) (from UniProt P17383 205-372) (domain or fragment) | no binding |  |  |  | 
full-length HPV-31 FLAG-E2 (from UniProt P17383 1-372) | binds | binds | binds |  | 
HPV-31 V5-E2 (from UniProt P17383 1-372) |  |  |  | binds | binds
